Measured values reported in patent US20240343816A1 (INSTITUTE OF HEALTH AND MEDICINE HEFEI COMPREHENSIVE …, published 2024).

Legend:
[1] = biological target: T1, human-derived IL-6Rα protein (human, UniProt P08887 20-365, limits assumed); assay: ELISA, h-IL-6Rα coated on the plate, Fc-carrying nanobody titrated, OD450 [A]
T1 construct: Described only as 'soluble human IL-6Rα protein'; also called h-IL-6Rα; soluble human IL-6Rα protein
T1 sequence (looked up): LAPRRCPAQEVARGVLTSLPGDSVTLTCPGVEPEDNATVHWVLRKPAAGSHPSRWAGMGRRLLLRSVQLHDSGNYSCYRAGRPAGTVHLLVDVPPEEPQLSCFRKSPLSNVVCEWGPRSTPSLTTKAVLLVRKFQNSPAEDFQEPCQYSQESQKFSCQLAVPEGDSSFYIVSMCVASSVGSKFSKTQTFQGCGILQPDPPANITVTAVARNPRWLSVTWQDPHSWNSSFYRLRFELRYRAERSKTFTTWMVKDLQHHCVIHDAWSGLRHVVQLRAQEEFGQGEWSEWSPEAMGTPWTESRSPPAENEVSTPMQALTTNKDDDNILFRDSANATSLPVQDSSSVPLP
Protocol: (§1) The antigen h-IL-6Rα was coated in an immunoplate, and blocking, primary antibody incubation and secondary antibody incubation were employed, etc. After TMB color reaction and termination of color development by concentrated sulfuric acid, the OD450 value was measured by Microplate Reader to determine whether the antigen binds to the antibody. The detection of antibody binding to the murine-derived antigen m-IL-6Rα was performed in the same way as described above.

[2] = biological target: T2, murine-derived IL-6Rα protein (murine, UniProt P22272 20-364, limits assumed); assay: ELISA, m-IL-6Rα coated on the plate, Fc-carrying nanobody titrated, OD450 [B]
T2 construct: also called m-IL-6Rα; murine-derived antigen m-IL-6Rα
T2 sequence (looked up): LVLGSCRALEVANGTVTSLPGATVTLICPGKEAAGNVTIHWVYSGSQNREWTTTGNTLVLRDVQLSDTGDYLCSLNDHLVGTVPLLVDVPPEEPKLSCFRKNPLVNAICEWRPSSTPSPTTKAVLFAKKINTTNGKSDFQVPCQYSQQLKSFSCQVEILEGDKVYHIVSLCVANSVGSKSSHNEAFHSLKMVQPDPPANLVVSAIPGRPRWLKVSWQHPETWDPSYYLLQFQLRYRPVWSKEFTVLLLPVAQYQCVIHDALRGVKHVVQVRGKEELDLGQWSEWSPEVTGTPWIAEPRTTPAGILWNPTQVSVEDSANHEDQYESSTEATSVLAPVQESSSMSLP
Protocol: as §1

EC50 (read off the curve) [1]: ~0.3 nM
binding result [2]: binds
B1: 2S3-3D-Fc (Fc fusion)
chain: QLQLVESGGGLVRPGGSLRLSCTIHGVTLDWYAVGWFRQAPGKEREGVSCISSSDGSTYYADSVKGRFTISRDNVKNTMYLQMNSLKPEDTAVYYCAMVFTTAQAMGVPFHDFEYDYWGPGTQVTVS[no letters for human IgG1 Fc]
notes: also called Fc-carrying nanobody; nanobody-Fc
